{"source": "patent US20220213195A1", "about": "(SHANDONG BOAN BIOTECHNOLOGY, published 2022)", "binders": {"B1": {"name": "PLTGBH03-BT613-IgG1 (other)", "heavy": "EVQLVQSGGGVVQPGKSLRLSCAASGFTFSSYSMHWVRQAPGKGLEWVALISFDGSNKYYADSVKGRFTISRDNSKNTLYLQMTSLRTEDTAVYYCARDRIYLDYWGQGTLVTVSS[human IgG1 constant region not listed]GGGGSGGGGSGGGGSGGGGSGIPPHVQKSVNNDMIVTDNNGAVKFPQLCKFCDVRFSTCDNQKSCMSNCSITSICEKPQEVCVAVWRKNDENITLETVCHDPKLPYHDFILEDAASPKCIMKEKKKPGETFFMCSCSSDECNDNIIFSEEYNTSNPD", "light": "ELVLTQSPDSLAVSLGERATINCKSSQSVLYSSNNKNYLAWYQQKPGQPPKLLIYWASTRESGVPDRFSGSGSGTDFTLTISSLQAEDVAVYYCQQYYSTPLTFGGGTKVDIKRTVAAPSVFIFPPSDEQLKSGTASVVCLLNNFYPREAKVQWKVDNALQSGNSQESVTEQDSKDSTYSLSSTLTLSKADYEKHKVYACEVTHQGLSSPVTKSFNRGEC", "notes": "Bifunctional fusion protein: anti-PDL1 IgG1 antibody with a TGFβRII fragment at the C-terminus of the heavy chain; also called BA613"}, "B2": {"name": "PLTGBQ16-BA466-IgG1 (other)", "heavy": "B1 heavy with K16R, S33A, L50A, F53Y, T84N, T88A, Y102F, L103F", "light": "B1 light with L2I, L4M, Y55D, T100F, D111E", "notes": "Bifunctional fusion protein: anti-PDL1 IgG1 antibody with a TGFβRII fragment at the C-terminus of the heavy chain; also called BA446"}, "B3": {"name": "PLTGBQ21-BA623-IgG1 (other)", "heavy": "B1 heavy with K16R, S31N, S33A, F53Y, T84N, T88A, L103F", "light": "B1 light with E1D, L2I, V3Q, L4M, T59I, E61D, V89A, Y97F, T100I, D111E", "notes": "Bifunctional fusion protein: anti-PDL1 IgG1 antibody with a TGFβRII fragment at the C-terminus of the heavy chain"}, "B4": {"name": "PLTGBQ21-BA669-IgG1 (other)", "heavy": "B1 heavy with E1Q, Q6E, K16R, S33A, F53Y, T84N, T88A, L103F", "light": "B1 light with E1D, L2I, L4M, V13M, S32N, I54T, T100L, D111E", "notes": "as for B3"}, "B5": {"name": "PLTGBQ24-BA603-IgG1 (other)", "heavy": "B1 heavy with K16R, S33A, F53Y, T69I, I70T, T84N, T88A, L103F", "light": "B1 light with E1D, L2I, L4M, T100I, L102I, G106Q, V110L, D111E", "notes": "as for B3"}}, "note": "Where a chain is given by its changes, count along the chain named."}
{"target": "T1, TGFβ1 (Sinobiological, catalog number: 10804-HNAC) (UniProt P01137 part only)", "T1 construct": "Bought recombinant protein; also called TGFβ1 protein", "T1 sequence (P01137 279-390 limits assumed)": "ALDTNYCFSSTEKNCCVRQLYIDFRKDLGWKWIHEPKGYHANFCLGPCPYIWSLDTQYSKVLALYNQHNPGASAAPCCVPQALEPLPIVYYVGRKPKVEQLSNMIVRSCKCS", "assay": "ELISA, TGFβ1 coated at 0.2 µg/mL, fusion protein 1 µg/mL", "units": {"OD450": "OD450"}}
{"binder": "B1", "OD450": 3.4}
{"binder": "B2", "OD450": 3.83}
{"binder": "B3", "OD450": 3.85}
{"binder": "B4", "OD450": 3.93}
{"binder": "B5", "OD450": 3.92}
{"target": "T1, TGFβ1 (Sinobiological, catalog number: …)", "assay": "ELISA, TGFβ1 coated at 0.05 µg/mL, fusion protein 1 µg/mL", "units": {"OD450": "OD450"}}
{"binder": "B1", "OD450": 1.46}
{"binder": "B2", "OD450": 2.01}
{"binder": "B3", "OD450": 2.3}
{"binder": "B4", "OD450": 2.35}
{"binder": "B5", "OD450": 2.37}
{"target": "T1, TGFβ1 (Sinobiological, catalog number: …)", "assay": "ELISA, TGFβ1 coated at 0.0125 µg/mL, fusion protein 1 µg/mL", "units": {"OD450": "OD450"}}
{"binder": "B1", "OD450": 0.388}
{"binder": "B2", "OD450": 0.88}
{"binder": "B3", "OD450": 0.813}
{"binder": "B4", "OD450": 0.728}
{"binder": "B5", "OD450": 0.861}
{"target": "T2, PDL1 protein (Sinobiological, catalog number: 10084-H08H) (UniProt Q9NZQ7 part only)", "T2 construct": "Bought recombinant protein", "T2 sequence (Q9NZQ7 19-239 limits assumed)": "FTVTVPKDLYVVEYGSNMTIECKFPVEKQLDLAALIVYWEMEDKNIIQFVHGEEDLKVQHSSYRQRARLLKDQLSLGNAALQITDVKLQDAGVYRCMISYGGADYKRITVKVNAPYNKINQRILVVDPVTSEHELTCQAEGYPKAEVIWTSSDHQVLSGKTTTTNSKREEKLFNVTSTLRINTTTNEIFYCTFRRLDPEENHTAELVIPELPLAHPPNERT", "assay": "SPR (BIAcore 8K), fusion protein captured by anti-human IgG Fc, PDL1 as analyte 3.125-50 nM, 1:1 model", "units": {"Kd": "nM", "koff": "s⁻¹", "kon": "M⁻¹ s⁻¹"}}
{"binder": "B1", "Kd": 0.73, "koff": 0.00101, "kon": "1.39e+06"}
{"binder": "B2", "Kd": 2.03, "koff": 0.00232, "kon": "1.14e+06"}
{"binder": "B3", "Kd": 1.34, "koff": 0.00179, "kon": "1.34e+06"}
{"binder": "B4", "Kd": 0.764, "koff": 0.00136, "kon": "1.78e+06"}
{"binder": "B5", "Kd": 0.963, "koff": 0.00164, "kon": "1.7e+06"}
